# Measurements: the supplement of paper PMC10037445
# The full ranking holds about 2,900 compounds; the median of “IRF Lucia reporter activity, fold change vs agonist alone” is about 0.9, and the highest 2% start at about 2.8. The list shows a part of the results.
# Columns and labels:
# RAW-Dual [1] = test: IRF Lucia reporter activity, fold change vs agonist alone; cytotoxicity flag (confluency mask): not cytotoxic; higher = enhanced IRF activity
# How it was run: (§1)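 RAW-Dual macrophages were seeded in DMEM at 50,000 cells/well in 384-well plates, given 50 nL of library stock by pin tool, and given a PRR agonist 1 h later. Plates were held at 37 °C, 5% CO2 for 20 hours, after which supernatant was read for IRF by QuantiLuc luminescence and for NF-κB by QuantiBlue absorbance at 620 nm. Reporter activity is expressed as fold change over wells that received agonist alone. A well was called cytotoxic when IncuCyte confluency fell below 70% of agonist controls in both mask sets.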
# RAW-Dual [2] = test: IRF Lucia reporter activity, fold change vs agonist alone; higher = enhanced IRF activity; conditions: cytotoxicity flag (confluency mask): not cytotoxic, agonist: MPLA (TLR4) […]
# How it was run: as §1
# [3] = agonist: 3'3'-cGAMP (STING) 10 ug/mL
# [4] = library stock concentration (final ~1000-fold dilution): 10 mM
smiles,measurement,setting,value
CCc1ccc(NC(=O)Nc2ccccc2)cc1 (library stock concentration (final ~1000-fold dilution): 10 mM),IRF Lucia reporter activity,RAW-Dual [1]; [3],0.658
same,IRF Lucia reporter activity,RAW-Dual [1]; agonist: LPS (TLR4) 0.1 ug/mL,0.658
O=C(NOCC1CC1)c1ccc(F)c(F)c1Nc1ccc(I)cc1Cl (library stock concentration (final ~1000-fold dilution): 10 mM),IRF Lucia reporter activity,RAW-Dual [1]; [3],0.525
same,IRF Lucia reporter activity,RAW-Dual [1]; agonist: LPS (TLR4) 0.1 ug/mL,2.5
O=C(NOCC1CC1)c1ccc(F)c(F)c1Nc1ccc(I)cc1Cl,IRF Lucia reporter activity,RAW-Dual [2]; [4],2.05
CS(=O)(=O)CCNCc1ccc(-c2ccc3ncnc(Nc4ccc(OCc5cccc(F)c5)c(Cl)c4)c3c2)o1.Cc1ccc(S(=O)(=O)O)cc1.Cc1ccc(S(=O)(=O)O)cc1.O,IRF Lucia reporter activity,RAW-Dual [2]; [4],1.8
CS(=O)(=O)CCNCc1ccc(-c2ccc3ncnc(Nc4ccc(OCc5cccc(F)c5)c(Cl)c4)c3c2)o1.Cc1ccc(S(=O)(=O)O)cc1.Cc1ccc(S(=O)(=O)O)cc1.O (library stock concentration (final ~1000-fold dilution): 10 mM),IRF Lucia reporter activity,RAW-Dual [1]; [3],0.259
same,IRF Lucia reporter activity,RAW-Dual [1]; agonist: LPS (TLR4) 0.1 ug/mL,2.46
NC(=O)c1ccccc1O (library stock concentration (final ~1000-fold dilution): 10 mM),IRF Lucia reporter activity,RAW-Dual [1]; [3],1.01
same,IRF Lucia reporter activity,RAW-Dual [1]; agonist: LPS (TLR4) 0.1 ug/mL,0.699
NC(=O)c1ccccc1O,IRF Lucia reporter activity,RAW-Dual [2]; [4],0.979
N#Cc1cnc(Nc2cc(NCC3CNCCO3)c(C(F)(F)F)cn2)cn1 (configuration not stated) (library stock concentration (final ~1000-fold dilution): 10 mM),IRF Lucia reporter activity,RAW-Dual [1]; [3],0.342
same,IRF Lucia reporter activity,RAW-Dual [1]; agonist: LPS (TLR4) 0.1 ug/mL,0.475
Cc1nc(NC(=O)N2CCCC2C(N)=O)sc1-c1ccnc(C(C)(C)C(F)(F)F)c1 (configuration not stated),IRF Lucia reporter activity,RAW-Dual [2]; [4],0.722
Cc1nc(NC(=O)N2CCCC2C(N)=O)sc1-c1ccnc(C(C)(C)C(F)(F)F)c1 (configuration not stated) (library stock concentration (final ~1000-fold dilution): 10 mM),IRF Lucia reporter activity,RAW-Dual [1]; [3],0.229
same,IRF Lucia reporter activity,RAW-Dual [1]; agonist: LPS (TLR4) 0.1 ug/mL,0.491
CC(C(=O)O)c1ccc(CC2CCCC2=O)cc1 (configuration not stated),IRF Lucia reporter activity,RAW-Dual [2]; [4],1.12
CC(C(=O)O)c1ccc(CC2CCCC2=O)cc1 (configuration not stated) (library stock concentration (final ~1000-fold dilution): 10 mM),IRF Lucia reporter activity,RAW-Dual [1]; [3],1.06
same,IRF Lucia reporter activity,RAW-Dual [1]; agonist: LPS (TLR4) 0.1 ug/mL,1.07
CC1c2cccc(O)c2C(=O)C2=C(O)C3(O)C(=O)C(C(N)=O)=C(O)C(N(C)C)C3C(O)C21.CC1c2cccc(O)c2C(=O)C2=C(O)C3(O)C(=O)C(C(N)=O)=C(O)C(N(C)C)C3C(O)C21.CCO.Cl.Cl.O (configuration not stated),IRF Lucia reporter activity,RAW-Dual [2]; [4],1.03
CC1c2cccc(O)c2C(=O)C2=C(O)C3(O)C(=O)C(C(N)=O)=C(O)C(N(C)C)C3C(O)C21.CC1c2cccc(O)c2C(=O)C2=C(O)C3(O)C(=O)C(C(N)=O)=C(O)C(N(C)C)C3C(O)C21.CCO.Cl.Cl.O (configuration not stated) (library stock concentration (final ~1000-fold dilution): 10 mM),IRF Lucia reporter activity,RAW-Dual [1]; [3],0.994
same,IRF Lucia reporter activity,RAW-Dual [1]; agonist: LPS (TLR4) 0.1 ug/mL,1.13
O=C(c1cc(Cc2n[nH]c(=O)c3ccccc23)ccc1F)N1CCN(C(=O)C2CC2)CC1 (library stock concentration (final ~1000-fold dilution): 10 mM),IRF Lucia reporter activity,RAW-Dual [1]; [3],0.977
same,IRF Lucia reporter activity,RAW-Dual [1]; agonist: LPS (TLR4) 0.1 ug/mL,1.37
O=C(c1cc(Cc2n[nH]c(=O)c3ccccc23)ccc1F)N1CCN(C(=O)C2CC2)CC1,IRF Lucia reporter activity,RAW-Dual [2]; [4],1.31
CCN(CC)CCNC(=O)c1cc(Cl)c(N)cc1OC.Cl,IRF Lucia reporter activity,RAW-Dual [2]; [4],1.1
CCN(CC)CCNC(=O)c1cc(Cl)c(N)cc1OC.Cl (library stock concentration (final ~1000-fold dilution): 10 mM),IRF Lucia reporter activity,RAW-Dual [1]; [3],1.02
same,IRF Lucia reporter activity,RAW-Dual [1]; agonist: LPS (TLR4) 0.1 ug/mL,0.788
Cl.O=S(=O)(c1cccc2cnccc12)N1CCCNCC1,IRF Lucia reporter activity,RAW-Dual [2]; [4],0.55
Cl.O=S(=O)(c1cccc2cnccc12)N1CCCNCC1 (library stock concentration (final ~1000-fold dilution): 10 mM),IRF Lucia reporter activity,RAW-Dual [1]; [3],0.811
same,IRF Lucia reporter activity,RAW-Dual [1]; agonist: LPS (TLR4) 0.1 ug/mL,0.515
O=C1c2ccccc2C(=O)C1c1ccccc1 (library stock concentration (final ~1000-fold dilution): 10 mM),IRF Lucia reporter activity,RAW-Dual [1]; [3],0.917
same,IRF Lucia reporter activity,RAW-Dual [1]; agonist: LPS (TLR4) 0.1 ug/mL,1.02
O=C1c2ccccc2C(=O)C1c1ccccc1,IRF Lucia reporter activity,RAW-Dual [2]; [4],0.972
Clc1ccc2c(c1)C(N1CCNCC1)=Nc1ccccc1O2 (library stock concentration (final ~1000-fold dilution): 2 mM),IRF Lucia reporter activity,RAW-Dual [1]; [3],0.919
same,IRF Lucia reporter activity,RAW-Dual [1]; agonist: LPS (TLR4) 0.1 ug/mL,1.1
Clc1ccc2c(c1)C(N1CCNCC1)=Nc1ccccc1O2,IRF Lucia reporter activity,RAW-Dual [2]; library stock concentration (final ~1000-fold dilution): 2 mM,1.25
O=C(O)CCc1nc(-c2ccccc2)c(-c2ccccc2)o1 (library stock concentration (final ~1000-fold dilution): 10 mM),IRF Lucia reporter activity,RAW-Dual [1]; [3],0.889
same,IRF Lucia reporter activity,RAW-Dual [1]; agonist: LPS (TLR4) 0.1 ug/mL,1.25
CC(=CC(=O)OCCCCCCCCC(=O)O)CC1OCC(CC2OC2C(C)C(C)O)C(O)C1O (configuration not stated),IRF Lucia reporter activity,RAW-Dual [2]; [4],1
CC(=CC(=O)OCCCCCCCCC(=O)O)CC1OCC(CC2OC2C(C)C(C)O)C(O)C1O (configuration not stated) (library stock concentration (final ~1000-fold dilution): 10 mM),IRF Lucia reporter activity,RAW-Dual [1]; [3],0.919
same,IRF Lucia reporter activity,RAW-Dual [1]; agonist: LPS (TLR4) 0.1 ug/mL,0.928
